# B1: catalytically inactive OTULIN^C129A (enzyme)
# chain: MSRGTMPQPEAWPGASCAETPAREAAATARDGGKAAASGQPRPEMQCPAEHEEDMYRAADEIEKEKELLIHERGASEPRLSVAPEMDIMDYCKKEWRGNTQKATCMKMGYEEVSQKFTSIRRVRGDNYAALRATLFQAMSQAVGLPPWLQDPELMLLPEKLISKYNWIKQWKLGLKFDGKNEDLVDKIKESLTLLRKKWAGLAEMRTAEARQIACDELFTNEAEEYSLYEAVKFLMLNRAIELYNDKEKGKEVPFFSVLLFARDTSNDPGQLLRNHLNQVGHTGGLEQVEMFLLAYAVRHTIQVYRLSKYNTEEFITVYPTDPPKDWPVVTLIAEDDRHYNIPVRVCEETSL
# Biological target: FlAsH (Fluorescein Arsenical Helix-binder)-labeled Met1 diUb (UniProt P0CG48 partial chain; P0CG48 partial chain, FlAsH (Fluorescein Arsenical Helix-binder) label)
# Assay: FP
binder,measurement,value
B1,Kd,0.29 µM

# From article PMC5002269 (2016)
